Experimental data reported in the supplement of paper PMC3334620.
Whole data set: some 33,000 sequences, median “E-score (-0.5 to 0.5)” near -0.036, cut for the highest 2% near 0.37. This is one part of the list.

biological target: T1, Yer064c (UniProt P40041); assay: PBM E-score (8-mer binding enrichment) (E-score (-0.5 to 0.5)); higher = stronger / more preferred TF binding; most listed sequences are background and not binding sites; conditions: protein concentration: 200 nM; construct: GST-full length
T1 sequence: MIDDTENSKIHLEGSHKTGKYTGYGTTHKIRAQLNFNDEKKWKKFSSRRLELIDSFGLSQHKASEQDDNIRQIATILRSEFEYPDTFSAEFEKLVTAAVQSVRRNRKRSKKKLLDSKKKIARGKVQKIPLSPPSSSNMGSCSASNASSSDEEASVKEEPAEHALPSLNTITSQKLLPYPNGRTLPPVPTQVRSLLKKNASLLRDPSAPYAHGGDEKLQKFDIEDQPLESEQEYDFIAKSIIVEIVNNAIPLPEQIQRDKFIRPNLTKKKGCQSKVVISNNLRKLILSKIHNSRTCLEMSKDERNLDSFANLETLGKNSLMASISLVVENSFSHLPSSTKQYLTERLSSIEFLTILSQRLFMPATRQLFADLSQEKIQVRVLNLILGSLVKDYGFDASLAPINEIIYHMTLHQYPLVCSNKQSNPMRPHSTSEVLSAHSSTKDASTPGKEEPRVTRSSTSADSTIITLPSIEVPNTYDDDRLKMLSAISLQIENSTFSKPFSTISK
Procedure: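 Universal 'all 10-mer' protein binding microarrays (Agilent AMADID 015681) probed with GST-tagged S. cerevisiae TFs (full-length or DBD) made by in vitro transcription/translation (PURExpress), about 100-200 nM. Bound TF was detected with fluorescent anti-GST. Each ungapped 8-mer (which stands for itself and its reverse complement) is scored by the PBM enrichment score (E-score), a modified Wilcoxon-Mann-Whitney statistic from -0.5 to +0.5, computed with the Universal PBM Analysis Suite. Scale: above 0.35 generally sequence-specific binding.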

| Sequence | PBM E-score |
| --- | --- |
| TAAAGTGA | 0.185 |
| ACTCCAAG | 0.0843 |
| ACGGTAAA | -0.283 |
| GAGTTGCC | -0.149 |
| ACCCTTGA | 0.0578 |
| ACAATGCG | -0.0538 |
| ACAGTGTA | 0.0814 |
| CATCTCGC | 0.0122 |
| AGCTAGTC | 0.324 |
| AACTGTCA | -0.129 |
| ACCTGCAG | -0.108 |
| AGTTGCGA | 0.0822 |
| CCCTCGAG | -0.0787 |
| AAGACGTC | -0.213 |
| CCTATGAG | 0.219 |
| AAAAACGC | -0.0321 |
| AGAGCGAC | 0.0954 |
| AGATGACG | -0.0495 |
| ATACTTTC | -0.0129 |
| GCCACGAA | 0.0416 |
| ACTCTGTC | 0.118 |
| CTTGATAA | -0.0143 |
| GTCAGCAC | 0.239 |
| CGCTCGCA | -0.0631 |
| AAAACAGA | 0.0177 |

| Sequence | PBM E-score |
| --- | --- |
| ATATGTCC | -0.223 |
| ACCCCCAT | -0.325 |
| CCGAACCC | -0.262 |
| CGTGGGAG | -0.15 |
| CCGCACTA | -0.177 |
| CTTCCTAA | -0.0225 |
| TAATCCAA | 0.178 |
| CCCGAGTA | 0.0478 |
| CCCTCTCA | -0.161 |
| ACTCGAAG | 0.149 |
| CCCCAAAC | -0.273 |
| AACGGACC | -0.268 |
| ACCGAGAG | 0.054 |
| GCCGCTTA | -0.0051 |
| GGGCGTGA | 0.0813 |
| CCGAAGAG | 0.0039 |
| GTCGACAA | -0.0508 |
| TATACAAA | 0.0856 |
| ACAAGTTC | -0.161 |
| CCAATGAG | -0.0367 |
| AGCTGTCG | -0.196 |
| AATTACGC | -0.116 |
| CTGACGGC | -0.208 |
| ATCACAGA | 0.234 |
| AGGCAAAA | -0.143 |

| Sequence | PBM E-score |
| --- | --- |
| AGCCAGAT | -0.054 |
| GGAACTAA | -0.0808 |
| CGATAGTA | 0.032 |
| CTACATGA | 0.298 |
| CTGTTTGC | 0.0369 |
| AGGCCACG | -0.0254 |
| TAGCGCGA | 0.127 |
| CGATTGAA | 0.152 |
| AGATAGCA | -0.0539 |
| AGCGTTAA | -0.0387 |
| ACGTGTTA | -0.144 |
| AGAAGGAA | -0.276 |
| ATTGTTCA | 0.00489 |
| CTAGGCGA | -0.0827 |
| GACTTTAC | 0.234 |
| ACGGGAAC | -0.176 |
| ACTGAGTG | 0.161 |
| GAAGTGTC | 0.105 |
| AGGTTTCA | -0.0119 |
| ACTAAGCA | 0.246 |
| CCTGCTGC | -0.138 |
| CATTCTAA | 0.164 |
| AATCACTC | 0.385 |
| ATCAGAGA | 0.207 |
| ACGCACCA | -0.24 |

| Sequence | PBM E-score |
| --- | --- |
| TACTATCA | 0.0134 |
| GGGGCAGA | -0.21 |
| GTTTCGCA | -0.0949 |
| CATATACC | -0.00252 |
| ACCCGCGT | -0.129 |
| AAGCTGCA | -0.157 |
| AAGGTGAG | 0.121 |
| AAGCCTCT | -0.154 |
| CAAATTGA | -0.0396 |
| TACGAACA | 0.0731 |
| CAACCTCA | -0.202 |
| GCCCTTGA | -0.0137 |
| CTACTGCC | -0.323 |
| CGGAAGAA | -0.0182 |
| CCCGCAAC | -0.00788 |
| TAGATGAA | 0.00973 |
| CGGCAGGA | -0.239 |
| GAGGCTAA | -0.0602 |
| AAAAACTG | -0.174 |
| ACGCTAGT | 0.0244 |
| CGGTGGCC | -0.25 |
| ATCTATTG | 0.107 |
| TACGACTA | 0.415 |
| GCCACTTA | 0.0189 |
| GAGGTGCC | -0.321 |

| Sequence | PBM E-score |
| --- | --- |
| GGGAATGA | 0.0959 |
| AGACGCGG | -0.234 |
| CCCCACTA | -0.141 |
| CAGCATAC | -0.21 |
| GCGCGACA | -0.0346 |
| GCACCAAC | -0.133 |
| CAGAGCTC | -0.051 |
| ACGGTTCA | -0.0012 |
| GAGTTACC | 0.12 |
| GAACCGTC | -0.209 |
| AGGCACAA | -0.111 |
| AGAGATCT | 0.01 |
| ACGGGCTC | -0.206 |
| ACAACGCG | -0.216 |
| GAGCTCGC | -0.155 |
| AGGGAACC | -0.171 |
| CGATCCTA | -0.245 |
| GAGTGTAA | 0.114 |
| CCAGTATC | -0.244 |
| AAGGAAAA | -0.126 |
| AAGGCGGC | -0.229 |
| AGGGCAAT | -0.154 |
| AGGGTAAA | 0.0915 |
| CCAATCAA | 0.0424 |
| AACTTAAT | 0.122 |

| Sequence | PBM E-score |
| --- | --- |
| ACATAGTA | 0.0874 |
| AACATATG | -0.0652 |
| CCTTGAGA | 0.175 |
| CTATGCGA | 0.0225 |
| ATAATCAT | 0.45 |
| CATGACCA | 0.0578 |
| ACCAGATC | -0.209 |
| GGCTAGCA | -0.076 |
| CCCGTGCG | -0.119 |
| ATGACGCC | -0.208 |
| ACCTACCT | 0.0781 |
| ATCGAACG | -0.225 |
| AAATATGA | 0.276 |
| ACATCTGC | -0.176 |
| CTGAGGAC | 0.0663 |
| GGTGTCGA | 0.046 |
| GCGCAGTA | -0.128 |
| AGAACAGG | -0.184 |
| CATAATCC | -0.0164 |
| TTGTTAAA | 0.0448 |
| ATATCTTC | 0.0239 |
| GAATGGGA | -0.00706 |
| CTTGCCCC | -0.361 |
| GATCGTCC | -0.0844 |
| ACTACGTC | 0.0287 |

| Sequence | PBM E-score |
| --- | --- |
| CCGAATTA | -0.137 |
| CACGGTTC | 0.0566 |
| AAGCACCC | -0.225 |
| CTTTAAAA | 0.174 |
| AATCTGAG | 0.108 |
| ACGGTCTG | -0.166 |
| CAATACGA | 0.0923 |
| GAGTATAC | 0.11 |
| GTGCCCAA | -0.0902 |
| GCCTTGCC | -0.103 |
| CAGCTACA | -0.165 |
| GACTAAGC | 0.42 |
| CGGTTAGC | -0.0499 |
| GGGACAAC | -0.202 |
| CGTTAATA | 0.0159 |
| ATTAAGTA | 0.181 |
| GACTGTCC | 0.169 |
| CAAGCTTA | 0.0225 |
| GCCGGCCC | -0.321 |
| GGGAAAAC | -0.345 |
| CAATCAGG | 0.218 |
| TATGACAA | -0.019 |
